# Assay results from PubChem BioAssay AID2546 (National Center for Advancing Translational Sciences (NCATS), 2010).
# Hit rate of the full screen: of about 310,000 compounds, about 11,000 (3.5%) were called active. Inconclusive means that the source gave no clear call. Such entries were picked first, then a sample of the others. Calls follow the shape of the dose curve; as a rule, active = well fitted inhibition curve with a large enough effect; inconclusive = small, poorly fitted or top-dose-only effect, or effect the other way; inactive = flat fitted curve, though single readings scatter. No potency is given beside an inconclusive call; the fits are too rough.
# Experiment: VP16 counterscreen qHTS for inhibitors of ROR gamma transcriptional activity;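 also: Gal4-VP16 expression switched on by copper sulfate through the metallothionein promoter; nearly all actives have a fitted effect of over 50% in size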
# Settings: Drosophila S2 Gal4-VP16 UAS-luciferase, luminescence, 20 h; activity, negative = inhibition: at 53.6 µM (top of the series)
# % is scaled to controls: 0 for no effect and ±100 for the full control effect; potency is read from the fitted curve at half-maximal effect; tags tell the direction and shape of the fitted curve.
Compound,"activity, negative = inhibition",Potency
Cc1cc([N+](=O)[O-])cc(C)c1OCC(=O)N/N=C/c1ccc(OC(=O)c2ccccc2)cc1,inactive: -14.9%,
O=C(CN1CCc2ccccc2C1)NC1CCCC1,inactive: -1.39%,
COCC(=O)N/N=C\c1cccc(OC)c1OC/C=C/c1ccccc1,,"inconclusive [inhibitor, single point]"
CCOc1ccc(NC(=O)Nc2cc(OCC(F)(F)F)cc(OCC(F)(F)F)c2)cc1,inactive: -25.8%,
COc1ccc(C(C[N+](=O)[O-])n2nc(C)cc2C)cc1 (stereo not given),,active: 10 µM
OC(Cn1ccnc1)c1ccc(Cl)cc1Cl (stereo not given),inactive: -2.75%,
Cc1ccn2cc(CSc3ccccc3N)nc2c1,inactive: -6.77%,
CCOC(=O)c1[nH]c(C)c(C(=O)NCCc2ccc(OC)cc2)c1C,inactive: -0.373%,
NC(=S)n1[nH]c(-c2ccc([N+](=O)[O-])cc2)c(N=Nc2cccc(Cl)c2)c1=O,,active: 7.08 µM
Cn1cccc1/C=N/NC(=O)Cn1cnc2ccccc21,,"inconclusive [inhibitor, single point]"
N=c1n(Cc2ccccc2Cl)c2ccccc2n1CC(O)c1ccco1 (stereo not given),inactive: -1.1%,
Cn1cnnc1SCC(=O)c1ccc2c(c1)OCCO2,inactive: 20.7%,
CSc1ccc(S(=O)(=O)NC2CCCCCC2)cc1,,"inconclusive [inhibitor, single point]"
CCOC(=O)Cc1csc(NC(=O)c2ccc(NC(C)=O)cc2)n1,,"inconclusive [activator, single point]"
Cc1ccc(N2C(=O)C3C4C=CC(CNC(=S)Nc5cccc(Cl)c5)(O4)C3C2=O)cc1 (stereo not given),,active: 12.6 µM
COc1ccc(S(=O)(=O)NCc2ccncc2)cc1OC,,"inconclusive [inhibitor, single point]"
Cc1cc(C(=O)CSc2nncs2)c(C)n1-c1ccc2c(c1)OCO2,,"inconclusive [inhibitor, single point]"
Cc1n[nH]c(C)c1CCc1nc2c3ccccc3nc(SCC(=O)Nc3ccccc3F)n2n1,,"inconclusive [inhibitor, single point]"
O=S1(=O)N=C(N/N=C/c2cccs2)c2ccccc21,,active: 0.501 µM
COc1ccc(S(=O)(=O)N/N=C\c2ccc3c(c2)OCO3)c(OC)c1,,active: 11.2 µM
COc1ccc(C(=O)Cn2cnc3ccccc3c2=O)cc1,,"inconclusive [inhibitor, full curve]"
CC1=NN(C(=O)c2ccoc2C)C(O)(C(F)(F)F)C1 (stereo not given),,active: 10 µM
Cc1ccc(C)c(N=Cc2cc3c(cc2[N+](=O)[O-])OCO3)c1,,"inconclusive [inhibitor, single point]"
CCOc1cc(N2CCOCC2)c(OCC)cc1NC(=O)CSc1ncccn1,inactive: -1.55%,
Cc1cc(C)n(C(=O)c2cc(F)c(F)cc2C)n1,,"inconclusive [activator, partial curve]"
CCn1c(=O)cc(OCC(=O)N2CCN(c3cccc(C(F)(F)F)c3)CC2)c2ccccc21,,"inconclusive [inhibitor, single point]"
O=C(CC1(O)C(=O)N(CN2CCOCC2)c2ccccc21)c1ccccc1 (stereo not given),,"inconclusive [inhibitor, single point]"

Compound,"activity, negative = inhibition",Potency
CCc1sc(C(=O)Nc2ccc(F)cc2C)cc1C,,"inconclusive [activator, partial curve, poor fit]"
Cc1nn(-c2ccccc2)c(Cl)c1C(=O)N1CCN(c2ncnc3c2cnn3-c2ccccc2)CC1,,"inconclusive [inhibitor, single point]"
O=C(NC1CC1)c1ccc(-c2nc3ccccc3s2)s1,,"inconclusive [inhibitor, partial curve]"
O=C(NC(=S)Nc1cccc(C(F)(F)F)c1)c1ccc2nonc2c1,,active: 10 µM
CC(C)c1onc(C(=O)N(C)Cc2ccccc2)c1[N+](=O)[O-],,"inconclusive [activator, single point]"
COc1cc(OC)cc(C(=O)N2CC(=O)Nc3ccccc32)c1,inactive: -15.9%,
CCc1ccc(NC(=S)/N=C(\N)Nc2nc(C)c3cc(CC)ccc3n2)cc1,,active: 7.08 µM
O=[N+]([O-])c1ccc2nc(-c3ccccn3)[nH]c2c1,,active: 6.31 µM
Cc1cc2nc(CCN3CCOCC3)n(S(=O)(=O)c3ccc(C(C)(C)C)cc3)c2cc1C,inactive: 1.35%,
O=C1C(Cl)=C(NCc2cccnc2)C(=O)c2ccccc21,,"inconclusive [inhibitor, single point]"
CSc1ccc(/C=N/Nc2nc(C)cc(C)n2)cc1,,"inconclusive [inhibitor, single point]"
Cc1cccc(NC(=S)NCc2ccc(F)cc2)c1,,active: 12.6 µM
Cc1ccc(-c2nc(C)c(C(=O)O)s2)cc1,,"inconclusive [inhibitor, partial curve, poor fit]"
CC1CCCC(NC(=O)C2N(CCCN3CCCC3)C(=O)C3C(C(=O)Nc4ccc(Cl)cc4)C4C=CC32O4)C1C (stereo not given),inactive: 15.6%,
CC(=O)Nc1ccc(C2=NNC(=Nc3ccc(S(=O)(=O)N4CCOCC4)cc3)SC2)cc1,inactive: 9.99%,
NC(=O)c1nsc(C(=O)N(c2ccc(F)cc2)C(C(=O)NCC2CCCO2)c2c[nH]c3ccccc23)c1N (stereo not given),,active: 15.8 µM
COc1cccc(/C=N/NC(=O)CC(C)O)c1OC/C=C/c1ccccc1 (stereo not given),,active: 15.8 µM
CCCCC(=O)NC(=S)Nc1cccc(NC(=O)c2ccco2)c1,,active: 15.8 µM
Cc1ccc(NC(=O)c2cc(C)n(-c3ccccc3)c2C)cc1,,active: 6.31 µM
Cc1cccc(NC(=O)NNC(=O)c2ccc3ccccc3c2O)c1,inactive: -4.03%,
CCCCCC/C(=N/O)c1ccccn1,,active: 15.8 µM
CCN(c1ccccc1)S(=O)(=O)c1ccc(NC(=S)NC(=O)c2ccc(Br)o2)cc1,,active: 15.8 µM
CCN(CC)S(=O)(=O)c1ccc(/C(O)=C(\C#N)c2nc3ccccc3n2C)cc1,,active: 5.62 µM
Cc1cc2ncc(-c3ccc(Cl)cc3)c(N)n2n1,,"inconclusive [inhibitor, single point]"
COc1cc(NC(=O)c2cccc(Cl)c2)c(OC)cc1NC(=O)CN1CCOCC1,inactive: 1.26%,
O=C(NCCSc1c[nH]c2ccccc12)c1ccco1,,"inconclusive [activator, single point]"
COc1cc(OC)cc(C(=O)OCC(=O)NCCCc2ccccc2)c1,inactive: 6.61%,

Compound,"activity, negative = inhibition",Potency
CCN(CC)CC(=O)c1c(N)n(Cc2ccccc2)c(=O)n(C)c1=O,inactive: 4.49%,
COc1ccc(C2=NCN(c3ccc(C)cc3)C(=S)N2)cc1,,active: 2.82 µM
COc1cc(NC(C)=O)ccc1-c1cc2ccccc2oc1=O,inactive: -19.3%,
CC(C)Oc1cccc(C(=O)NC(=S)NCc2cccnc2)c1,,"inconclusive [inhibitor, single point]"
C/C(=N\NC(=S)NCc1ccccc1)C1CCCCC1,,active: 1 µM
CCOc1ccc(/C=N/NC(=S)Nc2c(C)cccc2C)cc1,,active: 2 µM
Cc1ccc(-n2ncc3c2CC(C)(C)CC3NC(=O)Cc2c(C)noc2C)cc1 (stereo not given),,"inconclusive [inhibitor, single point]"
O=C(Nc1cccc(-c2nn[nH]n2)c1)c1ccc(Br)s1,inactive: -0.508%,
O=C(Nc1cc(SCCO)cc([N+](=O)[O-])c1)c1ccc(Br)o1,inactive: -7.52%,
CCCC(=O)NC(=S)Nc1ccccc1F,,"inconclusive [inhibitor, single point]"
CCCC1Cc2c(sc(NC(=S)NC(=O)c3ccccc3)c2C#N)CO1 (stereo not given),,"inconclusive [inhibitor, full curve, poor fit]"
COc1ccc(-c2oc3ncn(Cc4ccco4)c(=N)c3c2-c2ccc(OC)cc2)cc1,,"inconclusive [inhibitor, single point]"
O=C(/C=C/c1ccc(Cl)cc1Cl)Nc1ccncc1,,"inconclusive [activator, single point]"
COc1ccc(C(=O)CC(=O)C(=O)Nc2cccc(C(C)=O)c2)cc1,inactive: 5.36%,
O=C(c1cc(-c2ccccc2Cl)on1)N1CCCC1,,"inconclusive [inhibitor, single point]"
NC(=S)NN=C1c2cc(S(=O)(=O)N3CCOCC3)ccc2-c2ccc(S(=O)(=O)N3CCOCC3)cc21,inactive: -16.6%,
CCCCOc1ncnc2c1[nH]c1ccc(F)cc12,,active: 7.94 µM
COc1cc(/C=N/NC(=O)c2cccnc2)ccc1OC(=O)c1cccc(Br)c1,inactive: -17.9%,
Cc1ccc2[nH]c(=O)c(CN(Cc3cccs3)C(=S)NCc3ccco3)cc2c1,inactive: -90.6%,
NC(=O)c1ccsc1NC(=O)c1ccc(S(=O)(=O)N2CCCC2)cc1,,"inconclusive [activator, partial curve, poor fit]"
CC(=O)Nc1ccc(NC(=S)NC(=O)c2ccc([N+](=O)[O-])cc2)cc1,inactive: -2.86%,
CCCCC1S/C(=N/N=C/c2cccs2)NC1=O (stereo not given),,active: 0.316 µM
CCc1cccc(CC)c1NC(=S)NCc1ccc2[nH]c(C)cc2c1,,active: 11.2 µM
COC(=O)c1sc(NC(=O)C2c3ccccc3Oc3ccccc32)c(C(=O)OC)c1C,,"inconclusive [inhibitor, single point]"
O=C(Nc1cccc(-c2nc3cccnc3s2)c1)C1c2ccccc2Oc2ccccc21,,"inconclusive [inhibitor, full curve]"
Cc1ccc(-c2nnc(Cc3ccc([N+](=O)[O-])cc3)o2)cc1,,"inconclusive [inhibitor, single point]"
